# From PubChem BioAssay AID488969 (Vanderbilt High Throughput Screening Facility, 2010)
# The full ranking holds about 110,000 compounds; the median of “z-score” is about -0.1, and the highest 2% start at about 2. This is one part of the list. Active and inactive are the calls of the source.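 Rule for the calls: active = z-score in the third read window above 3 or below -3; inactive = the rest.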
# Molecular target: Metabotropic glutamate receptor 8 (Rattus norvegicus) (UniProt P70579)
# Experiment: mGluR8 Gi/Go-coupled signaling modulation – cell-based, rat, thallium flux, HTS, primary screen (AID 488969)
# Details: HEK293 rat mGluR8, GIRK (G protein-gated inwardly rectifying potassium channel) thallium flux, FluoZin2; at 10 µM; stronger effect = higher value; submaximal glutamate (EC20) added with thallium
# UniProt P70579, sequence (P70579 whole entry, looked up): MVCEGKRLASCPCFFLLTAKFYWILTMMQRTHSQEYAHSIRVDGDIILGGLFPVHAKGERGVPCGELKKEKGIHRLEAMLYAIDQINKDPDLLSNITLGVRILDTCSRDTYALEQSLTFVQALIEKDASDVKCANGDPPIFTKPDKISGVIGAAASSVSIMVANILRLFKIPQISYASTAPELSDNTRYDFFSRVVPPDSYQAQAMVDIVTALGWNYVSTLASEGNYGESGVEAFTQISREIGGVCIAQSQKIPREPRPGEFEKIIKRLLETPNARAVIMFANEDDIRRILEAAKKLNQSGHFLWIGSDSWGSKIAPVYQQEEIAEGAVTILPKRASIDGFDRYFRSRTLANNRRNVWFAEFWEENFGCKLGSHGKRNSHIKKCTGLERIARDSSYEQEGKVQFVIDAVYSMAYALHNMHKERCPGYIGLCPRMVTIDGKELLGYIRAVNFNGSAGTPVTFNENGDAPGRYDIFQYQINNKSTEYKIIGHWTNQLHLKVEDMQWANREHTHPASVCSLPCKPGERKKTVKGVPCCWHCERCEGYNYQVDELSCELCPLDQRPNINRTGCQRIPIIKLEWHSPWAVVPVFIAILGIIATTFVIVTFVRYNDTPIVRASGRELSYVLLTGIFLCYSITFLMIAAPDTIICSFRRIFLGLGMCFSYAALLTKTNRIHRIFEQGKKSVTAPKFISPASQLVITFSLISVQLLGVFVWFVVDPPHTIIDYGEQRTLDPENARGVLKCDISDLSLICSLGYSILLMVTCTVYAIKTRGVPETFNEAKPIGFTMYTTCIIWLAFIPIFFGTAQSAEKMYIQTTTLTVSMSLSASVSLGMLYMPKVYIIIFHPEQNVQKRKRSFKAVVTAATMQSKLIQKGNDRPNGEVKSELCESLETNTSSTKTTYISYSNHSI
row,SMILES,z-score
1,Cc1ccc(C(=O)NNC(=S)NC(=O)c2ccc(Cl)cc2Cl)cc1,2.02
2,O=C(O)CCC(=O)CCC(=O)c1ccc(Cl)cc1,-0.186
3,CCOc1ccc(CCNC(=O)CN(C)S(=O)(=O)c2cccc3nsnc23)cc1OCC,-0.519
4,Cc1ccccc1C(=O)NCc1nnc(SCC(=O)N2c3ccccc3Sc3ccccc32)n1C,-0.398
5,Cc1ccc(NC(=O)Nc2nc(-c3ccc(C)s3)cs2)cc1,0.0677
6,O=C(CCS(=O)(=O)c1ccccc1)Nc1ccccc1-c1nc2ccccc2s1,-1.9
7,O=C(c1ccco1)N1CCN(C(=O)C(Cc2ccccc2)NS(=O)(=O)c2cccs2)CC1 (stereo not drawn),-0.548
8,CC(=O)Nc1nc(COc2ccc3ccccc3c2)cs1,0.202
9,Cc1ccccc1Nc1nc(N)nc(CN2CCN(c3ccccn3)CC2)n1,-0.285
10,CCCN(CCC)C(=O)Cn1c(=O)n(CCC(=O)NCCc2ccccc2)c(=O)c2ccccc21,-0.114
11,NC(=O)C1CCN(c2ncnc3c2c(-c2ccccc2)cn3-c2ccccc2)CC1,0.722
12,CCOC(=O)c1[nH]c(C)c(/C(O)=C2\C(=O)C(=O)N(CCCN(C)C)C2c2cccnc2)c1C (stereo not drawn),-0.333
13,Cc1c(C(=O)NCc2ccccn2)sc2nc(-c3ccc(F)cc3)cn12,-1.64
14,O=C1CC(c2ccc(F)cc2)Sc2nc(C34CC5CC(CC(C5)C3)C4)nn21 (stereo not drawn),0.295
15,N=C1S/C(=C\c2cn[nH]c2-c2ccc(F)cc2)C(=O)N1c1ccccc1F,0.348
16,O=S(=O)(N1CCOCC1)N1CCCN(S(=O)(=O)N2CCOCC2)CC1,0.611
17,Cc1nc2ccccc2n2c(-c3ccccc3)c3c(=O)n(C)c(=O)n(C)c3c12,-0.404
18,C=CCn1c(SCC(=O)NCCC2=CCCCC2)nc2ccc(Cl)cc2c1=O,-0.151
19,COc1cccc(NC(=O)COc2ccc(S(=O)(=O)NC(C)C)cc2)c1,-0.282
20,CC1CCCCN1C(=O)CSc1nc(N)cc(=O)[nH]1 (stereo not drawn),-0.295
21,O=C(Nc1ccc2c(c1)OCO2)C1CC(c2c(F)cccc2Cl)=NO1 (stereo not drawn),0.133
22,CCCCNC(=O)c1ccc(CS(=O)(=O)c2cccc(C(F)(F)F)c2)o1,0.492

row,SMILES,z-score
1,CC(C)C(=O)Nc1c(-c2cccs2)c(=O)c2ccccc2n1C,-0.252
2,C=CCC1c2cccc(C(=O)O)c2C(=O)N1c1cccc(C)c1 (stereo not drawn),0.209
3,CC(C)(C)OC(=O)N1CCN(c2ccc(NC(=O)Cn3nnc(-c4ccccc4)n3)cc2)CC1,0.018
4,Cc1ccc(S(=O)(=O)NC2=NCN(C3CCCCC3)CN2)cc1,-0.47
5,Cc1ccc(N(C(C)C(=O)O)S(=O)(=O)c2cccnc2)cc1 (stereo not drawn),0.309
6,CN(C)CCn1c(=O)n(Cc2ccco2)c(=O)c2c3c(sc21)CCCCC3,1.12
7,CC[n+]1c(/C=C(\C)SC)sc2ccccc21,0.00206
8,Cc1sc(NC(=O)c2ccccc2)c(C(=O)NCCN(C)C)c1C,0.0559
9,O=C(CSc1nnc(-c2ccncc2)n1-c1ccccc1)N1CCN(c2ccc(Cl)cc2)CC1,0.253
10,CCOc1ccc(S(=O)(=O)N(CC(=O)O)c2ccccc2)cc1,0.618
11,COc1cc(NC(=O)CCN2CCN(Cc3ccccc3)CC2)cc(OC)c1,-0.499
12,Cc1ccc(NC(=O)CSc2nnc(-c3ccccc3Br)o2)cc1C,-0.395
13,COc1ccc(S(=O)(=O)Nc2nc3n(n2)C(c2ccc(Cl)cc2)CC(=O)N3)cc1 (stereo not drawn),-0.178
14,COc1ccc(OC(=O)c2cccc([N+](=O)[O-])c2)c(C(=O)/C=C/c2cccs2)c1,-0.269
15,N#Cc1c(NC(=O)c2ccccc2Cl)n(Cc2ccccc2)c2nc3ccccc3nc12,-2.53
16,O=C(Nc1ccncc1)c1cccs1,0.607
17,O=S(=O)(c1cccc(S(=O)(=O)N2CCN(c3ncccn3)CC2)c1)N1CCOCC1,1.56
18,CC(=O)Nc1ccc(S(=O)(=O)N2CCSC2c2ccccc2)cc1 (stereo not drawn),0.292
19,COc1cc(CNCCc2ccc(S(N)(=O)=O)cc2)ccc1OCC(=O)NC(C)(C)C,-0.102
20,COC(=O)c1cccc(NC(=O)c2cnoc2C)c1,-0.126
21,CCN1CCN(C(=S)NCc2ccc(C)cc2)CC1,0.0391
22,COc1ccc(-c2ccc(/C=N/N3C(=O)C4C5C=CC(C6CC56)C4C3=O)o2)c([N+](=O)[O-])c1 (stereo not drawn),-0.227

row,SMILES,z-score
1,CN(C)C(=O)c1cc([N+](=O)[O-])cc([N+](=O)[O-])c1N(C)C,-0.121
2,C[C@@]12CC(=O)NC1N(C(=O)c1cccc(C(F)(F)F)c1)C(c1ccccc1O)C2 (stereo partly drawn),0.152
3,CCCNS(=O)(=O)c1cccn1-c1ncc(C(F)(F)F)cc1Cl,0.246
4,COc1cc(S(=O)(=O)N2CCOCC2)ccc1NC(=O)COC(=O)c1ccccn1,0.0577
5,O=C(CCSc1nnc(-c2ccccc2)o1)N1CCOCC1,-0.088
6,Cc1cc(C)n2nc(SCC(=O)N(C)C)nc2n1,0.0531
7,COc1ccccc1C1=NOC(COC(=O)c2ccc3ccccc3n2)C1 (stereo not drawn),-0.167
8,c1ccc(Cc2nn3c(C4COc5ccccc5O4)nnc3s2)cc1 (stereo not drawn),-0.0053
9,O=C(NCc1ccc2c(c1)OCO2)C1CCN(Cc2cnn(-c3ccccc3)c2-n2cccc2)CC1,active: 3.14
10,COc1ccc(C(=O)Nc2ccccc2C(=O)N/N=C/c2ccc(O)c(OC)c2)cc1,-0.475
11,C/C(=C\C(=O)c1ccc(C)cc1)Nc1cccc(O)c1,-0.571
12,COc1ccc(-c2nnc(COc3ccc4ccccc4c3)o2)cc1OC,-0.216
13,CCOc1ccccc1CNC(=O)C1CCN(c2nc3ccccc3o2)CC1,0.183
14,Cn1cnnc1SCC(=O)Nc1ccc2nc(SCc3ccccc3Cl)sc2c1,0.33
15,CCc1c(C)nc2cc(C)[nH]n2c1=O,-0.428
16,COC(=O)C1=C(C)OC(N)=C(C#N)C1c1ccsc1 (stereo not drawn),1.04
17,CC1=C(C(=O)OCC(C)C)[C@]23C(=O)c4ccccc4[C@@]2(O1)OC(N)=C3C#N,0.462
18,COCc1n[nH]c(=S)n1-c1cccc2ccccc12,0.945
19,Cc1ccc(C(=O)Nc2ccc(Cl)cc2C(F)(F)F)c(Cl)c1,-0.278
20,CCCc1nn(-c2ccccc2)c2c1C(c1cccs1)C(C#N)=C(N)O2 (stereo not drawn),0.819
21,CCn1nc(C(=O)OCC(=O)c2ccc3c(c2)OCCO3)c2ccccc2c1=O,-0.721
22,CCOC(=O)CSc1ncnc2c1cnn2-c1ccccc1,-1.37

row,SMILES,z-score
1,CCn1cc(SCC(=O)N2CCc3ccccc32)c2ccccc21,-0.153
2,CCOC(=O)c1ccccc1NC(=O)COC(=O)C1=COCCO1,-0.168
3,c1csc(-c2nnc(NC3CCCCC3)c3ccccc23)c1,-1.27
4,Cc1ccc(-c2nn(C(C)(C)C)c3ncnc(N)c23)cc1,-0.312
5,Cc1cccc(C(=O)N(NC(=O)Oc2ccccc2)C(C)(C)C)c1,-0.264
6,Cn1c(=O)cc(OCC(=O)NCCCN2CCN(Cc3ccccc3)CC2)c2ccccc21,-0.447
7,O=C(O)c1cccc(CN2C(=O)CSC2=O)c1,0.375
8,N#Cc1c(-n2cccc2)cccc1-n1cccc1,0.128
9,c1cncc(-c2nc(NCc3ccco3)c3ccccc3n2)c1,-2.19
10,O=C(c1ccccc1)N1CCN(C(=O)c2ccccc2)CC1,0.281
11,CC(C)Cn1c(/C=C/c2ccccc2)nc2ccccc21,0.73
12,CN=C1S/C(=C\c2cccn2-c2cccc(Br)c2)C(=O)N1C,-0.385
13,CC(C)(C)SCCNC(=O)CSCc1ccc([N+](=O)[O-])cc1,-0.0767
14,CO/N=C(/CNC(=O)c1cccc(Cl)c1)c1ccc(Cl)cc1,0.219
15,Cn1c(C(=O)NCCCN2CCCCC2)cc2sccc21,0.351
16,Cc1cc2cc(C(c3nnnn3Cc3ccco3)N3CCCCC3)c(=O)[nH]c2cc1C (stereo not drawn),-0.431
17,CC(C)C(=O)c1cc2c(cc1NC(=O)Nc1cccc3ccccc13)OCCO2,-0.506
18,CCC(=O)Nc1cnc(NC(=O)c2cccc(F)c2)cc1C,0.0528
19,COc1cccc(C(=O)O/N=C/c2ccc(Sc3ccc(C)cc3)nc2)c1,-0.182
20,Cc1ccc(S(=O)(=O)N(CC(O)CN2CCOCC2)c2cc(Cl)ccc2Cl)cc1 (stereo not drawn),-1.77
21,Cc1nn(Cc2ccccc2)c(C)c1C(=O)OCC(=O)c1cc(C)n(CC(F)(F)F)c1C,-0.197
22,Cc1scc(C(=O)NNC(=S)NCc2ccccc2)c1C,0.0158

row,SMILES,z-score
1,CCNc1nc(Oc2ccc(C(=O)OC)cc2)nc(N(C)C)n1,0.609
2,CCOC(=O)c1c(C)nc(-c2ccccc2)nc1NC(=O)CC,1.02
3,CN1CCN(C(=O)c2cc(Cl)ccc2Cl)CC1,-0.158
4,O=C1c2cccnc2C(=O)N1CO,1.18
5,COC(=O)CSc1nnnn1-c1ccccc1,1.26
6,C/C=C/C(=O)OCC(=O)Nc1ccc(OC)c(Cl)c1,-0.123
7,Cn1ncc(Cl)c1C(=O)Nc1cccc(Cl)c1,0.16
8,COc1ccc(NC(=O)c2cc3c(s2)CCC3)cc1S(=O)(=O)N1CCOCC1,0.294
9,C(=C\c1ccccc1)/CN1CCN(c2ncnc3c2oc2ccccc23)CC1,0.364
10,CC(C)(C)n1ncc2c(=O)n(CC(=O)N3CCCc4ccccc43)cnc21,-0.524
11,O=C(CCCN1C(=O)c2ccccc2C1=O)NCc1ccco1,-0.437
12,CC(C)(CO)Nc1nc(N2CCCC2)nc(N2CCCC2)n1,2.09
13,Cc1ccc(NC(=O)c2sccc2C)cc1[N+](=O)[O-],-0.17
14,Cc1cc(C)c(C)c(S(=O)(=O)N2CCN(CC(=O)c3c(N)n(Cc4ccccc4)c(=O)n(C)c3=O)CC2)c1C,-0.0871
15,COc1ccc(-c2nnn(CC(=O)N(Cc3cccs3)C(C)C(=O)NC3CCCC3)n2)cc1OC (stereo not drawn),-0.384
16,O=C(Cc1ccc(-n2c(=O)c3sccc3n(Cc3ccc(F)cc3)c2=O)cc1)NCc1ccco1,-0.64
17,CC(=NCCCNC1CCCCC1)C1=C(O)CC(C)(C)CC1=O,-0.0935
18,NS(=O)(=O)c1ccc(CCNC(=O)NC2(C(F)(F)F)Oc3ccccc3O2)cc1,-0.179
19,COc1ccc(Cl)cc1NC(=O)c1cccc(NC(=O)CCC(=O)O)c1,-0.178
20,CCN1CCC(=NNC(=O)CC23CC4CC(CC(C4)C2)C3)CC1,0.244
